Data reported in PubChem BioAssay AID588591 (National Center for Advancing Translational Sciences (NCATS), 2011).
Several values for one entry are separate records, joined by “and”; a condition that tells them apart may be missing. Equal values may be shown once. Among all 390,000 compounds or so, about 4,700 (1.2%) were called active. Inconclusive results, whose numbers are uncertain, are shown with a selection of clear calls. The call rests on the fitted dose curve; in most records, active means well fitted inhibition curve with a large enough effect; inconclusive means small, poorly fitted or top-dose-only effect, or another doubt; inactive means no such curve, though single readings can be large or run the other way. Where the call is inconclusive, the potency comes from a doubtful curve fit.

molecular target: DNA polymerase eta (Homo sapiens) (UniProt Q9Y253); assay: qHTS for Inhibitors of Polymerase Eta; conditions: recombinant Pol eta, fluorescent DNA replication assay; series mostly up to 114 µM
Procedure, shortened: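 Fluorescent replication assay: 50 nM final substrate added after a 15 min room-temperature compound preincubation with 10 nM enzyme. Signal taken at 0 min and again at 10 min.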
Potency means the concentration at half of the fitted maximal effect; tags describe the fitted curve by direction and shape.

Chain of UniProt Q9Y253 (Q9Y253 whole entry, looked up): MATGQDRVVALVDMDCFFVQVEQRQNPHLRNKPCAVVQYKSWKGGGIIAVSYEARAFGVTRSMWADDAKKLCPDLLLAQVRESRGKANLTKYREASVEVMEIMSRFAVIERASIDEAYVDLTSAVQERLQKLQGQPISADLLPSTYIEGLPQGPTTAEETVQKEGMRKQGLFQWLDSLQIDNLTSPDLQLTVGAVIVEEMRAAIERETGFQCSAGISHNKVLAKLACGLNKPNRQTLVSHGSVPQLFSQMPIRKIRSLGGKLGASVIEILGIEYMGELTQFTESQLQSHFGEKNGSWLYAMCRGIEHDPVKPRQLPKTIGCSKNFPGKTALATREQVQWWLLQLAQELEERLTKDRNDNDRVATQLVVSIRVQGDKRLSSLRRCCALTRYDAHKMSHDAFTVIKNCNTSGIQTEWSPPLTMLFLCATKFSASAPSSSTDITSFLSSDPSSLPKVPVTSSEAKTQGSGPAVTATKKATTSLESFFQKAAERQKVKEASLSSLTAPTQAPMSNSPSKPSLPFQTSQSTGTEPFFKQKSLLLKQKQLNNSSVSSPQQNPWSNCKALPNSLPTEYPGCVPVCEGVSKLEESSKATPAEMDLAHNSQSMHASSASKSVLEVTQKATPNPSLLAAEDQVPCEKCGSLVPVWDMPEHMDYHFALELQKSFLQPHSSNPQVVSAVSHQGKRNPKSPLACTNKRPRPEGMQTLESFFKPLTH

Compound | Potency
COc1cc(/C=N/NC(=O)c2cc(-c3ccco3)nc3ccccc23)cc(OC)c1O | inconclusive: 44.7 µM [inhibitor, partial curve]
CCOc1ccccc1NC(=S)NC(=O)CCc1ccccc1 | inconclusive: 79.4 µM [inhibitor, partial curve, poor fit]
O=C(O)C1Cc2ccccc2CN1C(=O)c1ccco1 (configuration not stated) | inconclusive: 20 µM [inhibitor, full curve]
O=C1NC(=O)/C(=C\c2ccc(Sc3ccc(Cl)cc3)o2)N1 | inconclusive: 28.2 µM [inhibitor, partial curve]
Cc1ccc(-c2cc(C(=O)N3CCOCC3)c3ccccc3n2)cc1 | inconclusive: 31.6 µM [inhibitor, partial curve, poor fit]
CN1CCN(c2ccc(S(=O)(=O)N3CCCCC3)cc2NC(=O)c2ccc(F)cc2F)CC1 | inconclusive: 44.7 µM [inhibitor, partial curve, poor fit]
CS(=O)(=O)N1CCN(c2ccc([N+](=O)[O-])c(NCc3ccc(Cl)cc3)c2)CC1 | inconclusive: 11.2 µM [inhibitor, full curve]
Cn1ccc(C(=O)Nc2sc3c(c2C#N)CCC3)n1 | active: 79.4 µM
O=C(O)c1ccc(/C=C/C(=O)c2ccc3c(c2)OCCCO3)cc1 | active: 22.4 µM
COc1ccc(Br)cc1/C=N/Nc1ccc(S(=O)(=O)Nc2ccccc2C(=O)O)cc1[N+](=O)[O-] | active: 15.8 µM
Cc1c(C(=O)Nc2ccccc2Br)oc2ccc(S(=O)(=O)N3CCCCCC3)cc12 | inactive
COc1ccc(C(=O)Nc2cccc(/C=C(/CCC(=O)O)c3nc4ccccc4s3)c2)cc1 | active: 39.8 µM
CCN(CC)CCCNc1nc2ccccc2c2[nH]c3ccc(OC)cc3c12 | active: 10 µM
CSc1nncc(/C(C)=N\Nc2ccccc2)n1 | inconclusive: 14.1 µM [inhibitor, partial curve, poor fit]
O=S1(=O)CC/C(=N/Nc2ccc(C(F)(F)F)cn2)c2cc(F)ccc21 | inactive
Cc1cc(C)cc(-n2cccc2/C=C2/C(=N)N3C(=NC2=O)SN=C3S(C)(=O)=O)c1 | active: 39.8 µM
COc1ccc(C(=O)Nc2nc(C)cs2)cc1S(=O)(=O)N1CCOCC1 | inactive
CCOc1cc(N2CCCC2)ccc1[N+](=O)[O-] | inactive
CCOc1ccc(-n2c(=S)sc3c(=O)[nH]c(SCC(=O)NCc4ccco4)nc32)cc1 | active: 56.2 µM
COC(=O)c1cc(Nc2nc3ccccc3nc2NS(=O)(=O)c2ccc(C)cc2)ccc1Cl | inconclusive: 89.1 µM [inhibitor, single point]
COc1cccc(/C=C2/NC(=O)N(CC(=O)Nc3ccc(C)cc3)C2=O)c1OCc1cccc(C(=O)O)c1 | inconclusive: 22.4 µM [inhibitor, full curve, poor fit]
Oc1ccccc1N1CCN(C(c2ccccc2)c2ccccc2)CC1 | inconclusive: 89.1 µM [inhibitor, partial curve, poor fit]
Cc1cc(C)nc(NS(=O)(=O)c2ccc(NC(=O)c3cc(-c4ccccc4)nc4ccccc34)cc2)n1 | inconclusive: 89.1 µM [inhibitor, single point]

Compound | Potency
O=C(CSc1nnc2c(n1)[nH]c1ccccc12)NCc1ccco1 | inconclusive: 28.2 µM [inhibitor, single point]
Clc1ccc(C2=CC(c3ccco3)n3ncnc3N2)cc1 (configuration not stated) | inconclusive: 14.1 µM [inhibitor, partial curve]
CCOc1ccc(C2C(C(=O)/C=C/c3ccco3)=C(O)C(=O)N2CCN2CCOCC2)cc1OC (configuration not stated) | inconclusive: 3.55 µM [inhibitor, partial curve, poor fit]
O=C(Nc1cc(-c2ccccc2)sc1C(=O)O)c1cccc(F)c1 | inactive and inconclusive: 89.1 µM [inhibitor, single point]
N#CC1=C(N)Oc2c(oc(CO)cc2=O)C1c1ccsc1 (configuration not stated) | inconclusive: 31.6 µM [inhibitor, partial curve, poor fit]
COc1cccc(Cc2nc3ccccc3nc2SCC(=O)Nc2cccc(C)c2)c1 | inactive
Cc1nc(-c2cccnc2)sc1C(N)=O | inconclusive: 39.8 µM [inhibitor, single point]
CCOc1ccc(-n2c(SCC(=O)Nc3cc(C)ccc3C)nc3c([nH]c4ccccc43)c2=O)cc1 | inactive
Cc1ccc(-c2cc(N)nc(-c3ccccc3)c2)cc1 | inconclusive: 39.8 µM [inhibitor, partial curve, poor fit]
CCOc1ccc(-c2cn3c(n2)sc2cc(C(=O)NCCCN4CCCCCC4)ccc23)cc1 | inconclusive: 56.2 µM [inhibitor, partial curve]
CCC1Nc2ncnc(N3CCN(c4ccccc4)CC3)c2N(Cc2ccc(C)cc2)C1=O (configuration not stated) | inconclusive: 56.2 µM [inhibitor, partial curve, poor fit]
C/C(=N\Nc1ccc(S(N)(=O)=O)cc1[N+](=O)[O-])c1cccs1 | inconclusive: 22.4 µM [inhibitor, partial curve]
N#Cc1c(-c2ccccc2)cc(-c2ccccc2)[nH]c1=O | inconclusive: 25.1 µM [inhibitor, partial curve, poor fit]
CCc1ccc2[nH]cc(S(=O)(=O)c3ccc(C(C)C)cc3)c(=O)c2c1 | inactive
Nc1ccc(S(=O)(=O)c2cc(O)c3ccccc3c2O)cc1 | active: 39.8 µM
CCCOc1ccc(C(=O)NNC(=S)NC(=O)c2ccccc2[N+](=O)[O-])cc1 | inconclusive: 112 µM [inhibitor, partial curve, poor fit]
Cn1c(=O)n(C)c2cc(/C=N/N=C3/NC(=O)C(CC(=O)O)S3)ccc21 (configuration not stated) | inconclusive: 44.7 µM [inhibitor, partial curve]
O=C(Cc1cc(=O)[nH][nH]1)N/N=C/c1ccccc1Cl | inactive
COC(=O)c1cc2oc(C)cc2n1Cc1ccccc1Cl | inconclusive: 100 µM [inhibitor, partial curve, poor fit]
O=C(NN1C(=O)c2ccc(-c3ccc4c(c3)C(=O)N(NC(=O)c3cccnc3)C4=O)cc2C1=O)c1cccnc1 | active: 50.1 µM
C/C=C1\C(OC2OC(CO)C(O)C(O)C2O)OC=C(C(=O)OC)C1CC(=O)OCC1C(C)C(OC(=O)CC2C(C(=O)OC)=COC(OC3OC(CO)C(O)C(O)C3O)/C2=C\C)CC1C(CO)CO (configuration not stated) | inconclusive: 31.6 µM [inhibitor, full curve]
CCc1ccccc1NC(=S)N1CCN(c2cccc(OC)c2)CC1 | inconclusive: 4.47 µM [inhibitor, full curve, poor fit]
Cc1ccc2nc(CN3CCN(C(=O)Nc4ccc(F)cc4)CC3)oc2c1 | inactive

Compound | Potency
C=CCSC1=N/C(=C\c2ccc(C)o2)C(=O)S1 | inconclusive: 28.2 µM [inhibitor, partial curve, poor fit]
CCn1c(/C=C2/C(=O)N(C)c3ccccc32)nc2ccccc2c1=O | inconclusive: 28.2 µM [inhibitor, partial curve]
CCCCc1ccc(NC(=S)NCc2ccccc2OC)cc1 | inactive
Cc1c(-c2cccc(Cl)c2)nc2ccccc2c1C(=O)OC/C(O)=C(\C#N)c1nc2ccccc2[nH]1 | inconclusive: 100 µM [inhibitor, single point]
COc1cc(Cl)c(C)cc1NC(=O)CCn1c(=O)c2cccn2c2cccnc21 | active: 79.4 µM
COc1cccc(/C=N/n2c(-c3ccco3)nc3ccccc3c2=O)c1OC | inconclusive: 31.6 µM [inhibitor, single point]
COc1cccc(/C=C(/C#N)c2ccc(Cl)cc2)c1OCc1cccc(C(=O)O)c1 | inactive
COc1ccc(-c2cn3cccnc3n2)cc1NC(=O)c1c(F)cccc1F | inactive
COc1cccc(NC(=O)CN(C)C(=O)C2CC(=O)N(CCc3ccc(OC)c(OC)c3)C2)c1 (configuration not stated) | inconclusive: 22.4 µM [inhibitor, partial curve, poor fit]
COc1ccc(Nc2ncnc3c2cnn3-c2ccc(C)cc2C)cc1 | inactive
N#Cc1ccccc1OCC(=O)NC(=O)NCc1ccco1 | active: 39.8 µM
Brc1ccc(C2=CC(c3ccco3)n3ncnc3N2)cc1 (configuration not stated) | inconclusive: 35.5 µM [inhibitor, partial curve, poor fit]
COc1cc2cc(-c3ccc(O)cc3O)nc(C)c2cc1OC | inconclusive: 14.1 µM [inhibitor, full curve]
CN(CC(=O)Nc1c(Cl)cccc1Cl)C(=O)c1ccc2nc[nH]c2c1 | inconclusive: 28.2 µM [inhibitor, full curve]
Cc1ccc(S(=O)(=O)N2[C@@H](c3ccc(C(C)(C)C)cc3)C(C(=O)O)=CC[C@H]2c2ccc(Cl)cc2)cc1 | active: 79.4 µM
Cc1ccc(OCCC(=O)OCC(=O)N2CCN(S(=O)(=O)c3ccc(C)cc3)CC2)cc1 | inconclusive: 79.4 µM [inhibitor, partial curve, poor fit]
CCCn1c(S(=O)(=O)O)nc2ccccc21 | active: 28.2 µM
CC1(C)S[C@@H]2[C@H](NC(=O)[C@H](N)c3ccccc3)C(=O)N2[C@H]1C(=O)O | active: 44.7 µM and active: 10 µM
COc1ccccc1-n1cnc2cc(C(=O)NCc3ccco3)ccc21 | inconclusive: 22.4 µM [inhibitor, single point]
Cc1occc1C(=O)Nc1cccc(C(=O)O)c1 | inactive
COc1cc2c(cc1OC)CN(C(=O)c1cc(=O)c3ccccc3o1)CC2 | inconclusive: 35.5 µM [inhibitor, partial curve, poor fit]
